Laboratory results from the supplement of paper PMC10126150.
Values marked as one replicate rest on one cluster of the flow cell; about a third of the high ones do not repeat.

System: ATP
Assay: switch fluorescence ratio, 500 uM ATP over buffer (Cy3 cluster intensity, sum of 5 cycles each) (fold (ratio)); higher = stronger signal-on switching upon ATP binding; sequences stand for … in TCGTCGGCAGCGTCAGATGTGTATAAGAGACAGTTTTTTTTTTTTTTTTTTTTTTTTT…TC
Details: aptamer strand: ATP DNA aptamer (quencher-CACCTGGGGGAGTATTGCGGAGGAAGG + anchor), 100 nM annealed; ATP concentration: 500 uM; one replicate
Summary of the method: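 Cy3-labelled switching-strand clusters on a modified Illumina MiSeq flow-cell were annealed to 100 nM quencher-labelled ATP aptamer and imaged first in selection buffer, then after 15 min with 500 uM ATP at 22 °C. NaOH stripping and re-annealing separated each of five buffer/ATP cycles, and clusters outside 100-1000 RFU were excluded. The fluorescence ratio sums target-cycle Cy3 intensity over buffer-cycle Cy3 intensity per cluster and averages it per switch-domain sequence.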
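Also: ATP exposure 15 min at 22 °C before imaging.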

| Sequence | switch fluorescence ratio |
| --- | --- |
| GTCGCGCGGG | 1.04 |
| GCTTATGAGT | 0.957 |
| ATGTATACCT | 1.19 |
| CCGTGCTGTA | 1.19 |
| ATTTTTTTAC | 0.997 |
| CGAGAGAGA | 0.976 |
| AAGAAGTTAT | 1 |
| CGTGTGTTAA | 1.06 |
| AGAACCCAAT | 1.01 |
| AAACTTGCTA | 1.02 |
| AAAGCCTAAG | 0.976 |
| CTGCTGAGGC | 1.03 |
| GATCGCCCGG | 1.08 |
| AAACAAAGTT | 1.01 |
| TGGCCTTGAC | 1.03 |
| TTCTGGTATG | 0.936 |
| AAAGGCTTGT | 0.986 |
| GCTTTTACAT | 1.05 |
| CTCATTGCAT | 1.17 |
| GAGCTATCT | 1.03 |
| AGACGGGATC | 1.54 |
| TTCCGTAAAG | 1.01 |
| AGATTGCGGG | 0.958 |
| CTAACAGGCT | 1.1 |
| TAGGTACGGT | 1.04 |
| CCTATTCTCC | 1.16 |

| Sequence | switch fluorescence ratio |
| --- | --- |
| AAGTCCCAGA | 1.01 |
| ATTGTGAGTT | 0.95 |
| TTGCCTTTC | 1.23 |
| ATTGTCAGAA | 0.976 |
| CGTACGGGTC | 1.04 |
| CTATTCAATT | 0.984 |
| CAATAACTCG | 1.08 |
| TTTAAACCAA | 1.04 |
| ATAAGGTACA | 1.08 |
| TGCCGGAGCG | 1.19 |
| GATTGTTCCG | 0.954 |
| CGCGTATGGT | 1 |
| TGAGTTCCTC | 1 |
| ATGTATCTGT | 1.02 |
| TAGCCTGATC | 1.16 |
| GTTTGCAGAT | 1.09 |
| GAGTGGGGTC | 0.983 |
| CCTGTAGAAT | 1.02 |
| TCCTGAGTCT | 1.08 |
| TGGCAAACG | 1 |
| CAAATTTAGC | 1.03 |
| ATAGGCAAGT | 1.03 |
| CATTGGCTAT | 1.05 |
| TATGGTAAGG | 0.944 |
| ATGAGTCGGG | 1.03 |
| AAGGGGAGG | 1.03 |

| Sequence | switch fluorescence ratio |
| --- | --- |
| GGGGTCAATT | 1.01 |
| GTGCTCCCGT | 1.07 |
| GATACTCAAA | 1.32 |
| GCGGACGGT | 0.999 |
| CTATAGGCTT | 0.995 |
| GACTTATGGA | 1.01 |
| ACAAACCTAG | 1.15 |
| TGGCGGAGGA | 1.14 |
| GCCAAACATT | 1.02 |
| TTGGAAGAGG | 0.991 |
| AGATCTTGGT | 1.01 |
| TTAAATCCTA | 0.995 |
| TCGGACGGTG | 1.03 |
| TGGTGACCGC | 1.05 |
| GATGATTAAT | 0.986 |
| TAGGGGAGCG | 0.975 |
| GTTACATGGC | 1 |
| ACGGAGGTAA | 1.03 |
| AGCCAGC | 1.01 |
| GTGTGACCTC | 0.984 |
| TGGGTTGAAC | 1 |
| TTTTTAA | 0.966 |
| AGACACAGG | 1.13 |
| AGTTAATAGT | 1.01 |
| CATAAAGGTG | 1.4 |
| CATTTAAAAG | 0.994 |

| Sequence | switch fluorescence ratio |
| --- | --- |
| TATAACCTTA | 1.16 |
| AGGGAGCCCA | 0.983 |
| TTTTAACGGT | 1.01 |
| TGAGGCCAAA | 1.05 |
| TCAGTTCACG | 1.01 |
| GACGGTAGC | 1.06 |
| TAGCGGCGGA | 0.986 |
| TGATTTAGCC | 0.991 |
| CGGTCAGTCT | 0.987 |
| ATTATCTAT | 0.953 |
| AGATTCTTCA | 1.01 |
| TAGTCGTTT | 0.945 |
| GCGTGATAT | 1.17 |
| ATGCAGGAGA | 0.966 |
| CGTTACTATG | 0.998 |
| ATCTACTCCA | 1.11 |
| TTACATCTCA | 1.05 |
| AGAGTAGACA | 1.05 |
| TGGTTACTGC | 1.07 |
| AGCGCCGGG | 1.04 |
| ACCTAGTGAG | 1.04 |
| GGTTAGCGCG | 1.02 |
| GCAAACAT | 1 |
| TACTCACAGC | 1.36 |
| TTCGCTAATG | 1.12 |
| ATATTCTGCT | 0.968 |

| Sequence | switch fluorescence ratio |
| --- | --- |
| GTGATAAAT | 1.29 |
| TCAAACTTGC | 0.98 |
| TACGTGACTA | 1.26 |
| AAGCAGCTCG | 0.991 |
| CATTGAGACC | 1.18 |
| ATGTGACAGG | 0.996 |
| GAAGGGTCAT | 1.02 |
| GGCAAAGTAA | 1.01 |
| CTTACTGCCG | 1.05 |
| TGATTGTGAG | 1.01 |
| GAACCCGAGC | 1.07 |
| ACACAACTGG | 1.23 |
| CTGAGTTTAG | 1 |
| AACAGTTTGG | 0.945 |
| TTCCTTAATT | 0.99 |
| GTGAGGACGT | 0.978 |
| AACGTGTGTT | 1.01 |
| ACTGGAGAGA | 1.02 |
| TGCGTTATC | 1.42 |
| ATAGCTGTCG | 1.07 |
| TCTTAAAGTA | 1.03 |
| ACTATATGTT | 1 |
| TCGTTGGGTC | 0.987 |
| TAGACGCGA | 1.44 |
| GCACTCTGCC | 1.05 |
| ACCGTTAGTT | 1.01 |

| Sequence | switch fluorescence ratio |
| --- | --- |
| GATCGAAGTC | 0.988 |
| GCAGATGAAG | 0.959 |
| CGCACAGGAT | 1.1 |
| TAGCTAGCCG | 0.977 |
| GTTTTGGG | 0.947 |
| TTAAGAAGTT | 1.04 |
| GCTTAACTTT | 1.06 |
| TTATGTCAAG | 1.01 |
| TGTCACTTG | 1.02 |
| GGCTGATACT | 1.11 |
| GGTTGGCGAC | 1.02 |
| TTTGTAGGAA | 1 |
| TACCGTCCTA | 1.05 |
| CCAAACGGGT | 0.978 |
| TCGGCACGGG | 0.975 |
| AGTTTACATG | 1 |
| CACGTTTTGT | 0.959 |
| TCATTGCCAG | 1.02 |
| CTTAGTATGC | 0.99 |
| GGAGTCTTAT | 0.979 |
| GAAAGTGATC | 0.982 |
| CGCCCGCCT | 1.12 |
| TCTTTGTCGT | 0.974 |
| TCGTGGTAGG | 1.04 |
| GTTTTCAACC | 0.997 |
| CTTAGAACCA | 0.953 |

| Sequence | switch fluorescence ratio |
| --- | --- |
| TCAGTGTTGT | 1.01 |
| CCTGACATCC | 1.42 |
| AAGCTGTGGT | 0.997 |
| TACTGTCTT | 0.986 |
| GATGTTATCT | 1.01 |
| ATTTCCGGTC | 1.04 |
| TTCCCAACAA | 1.02 |
| CTCGACTGAG | 0.979 |
| TGGATATTT | 1.01 |
| GCGTTCGAGC | 1.03 |
| AGTTAGTAAA | 0.97 |
| AGTAACGTG | 1.02 |
| AGTGTCTGAA | 0.979 |
| CTGGTATTT | 0.967 |
| GACAACTAAG | 1 |
| AGTCTGGCTG | 0.939 |
| TCGGTATGGA | 1.02 |
| TTTGGATTGA | 1.09 |
| TAATTAAGCC | 0.965 |
| AAGATGTCAA | 0.995 |
| AGCGAGGAGG | 1.02 |
| CAGTATTGGT | 1.01 |
| ATACTCCAT | 1.15 |
| AAACGGAAGA | 1.04 |
| TTTCAATTG | 1.02 |
| ATGATATTCA | 1.05 |

| Sequence | switch fluorescence ratio |
| --- | --- |
| TCTTAAGCCA | 1.05 |
| ATTCAATCTC | 0.976 |
| TGATCGAAGT | 0.965 |
| CGAATGATTT | 1.01 |
| AACTAATTG | 0.971 |
| AACTGTGACA | 1.09 |
| CTTGCAGTCC | 1.19 |
| GTTGTCCGAT | 0.977 |
| TTCGAAGAAA | 1.02 |
| GTTACTTCCG | 1.14 |
| ACCACTATCG | 1.05 |
| GCAATATGG | 1.85 |
| AGGGCGAGTG | 0.975 |
| CTATAGTAA | 1.1 |
| AGTATCAAAG | 1.04 |
| TTCGCAGGTA | 0.997 |
| GGGGCGAC | 1.04 |
| GTGGCACTGC | 1.01 |
| GAAAGCTGCT | 0.977 |
